The list shows a part of the results. Values were computed here from the reads of four pooled replicates and scatter widely.

The experiment deals with T1, Pho4 (S. cerevisiae) (UniProt P07270).
T1 sequence: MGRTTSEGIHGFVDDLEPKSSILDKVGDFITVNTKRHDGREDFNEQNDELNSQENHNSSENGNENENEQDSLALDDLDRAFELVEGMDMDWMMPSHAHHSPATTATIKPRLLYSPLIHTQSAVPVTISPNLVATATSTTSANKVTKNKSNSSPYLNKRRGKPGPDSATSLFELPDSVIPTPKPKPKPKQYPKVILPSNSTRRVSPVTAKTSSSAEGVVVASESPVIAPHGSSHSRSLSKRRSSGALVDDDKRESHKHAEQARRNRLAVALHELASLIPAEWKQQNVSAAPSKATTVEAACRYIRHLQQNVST
The experiment is described as follows: relative binding free energy (BET-seq); higher = weaker binding. The settings on record: reference: library average.
Take TTAGGCACGTGAGTTC: the “relative binding free energy” value is 0.2 kcal/mol. The figure for AGGGCCACGTGTAGGG is -0.11 kcal/mol. The figure for TGGGCCACGTGGCGTG is -0.24 kcal/mol; for AGTGACACGTGTGTTC it is 0.03 kcal/mol.

With ATTGGCACGTGCAAGG, the “relative binding free energy” value is -0.21 kcal/mol. The figure for TCTTTCACGTGTGTGG is 0.38 kcal/mol; for ATATGCACGTGAATGT it is 0.2 kcal/mol. As to TGAGTCACGTGAGTGA, the “relative binding free energy” value was 0.2 kcal/mol. The value for TTCGACACGTGAGGGT was 0.28 kcal/mol; that for TGAATCACGTGTGGTT was 0.25 kcal/mol. The figure for TTTTGCACGTGGTGAA is 0.01 kcal/mol; for GGCCTCACGTGTGAGG it is 0.4 kcal/mol; for AAATTCACGTGTAATG it is 0.22 kcal/mol. Turning to ATTGGCACGTGATATG, the “relative binding free energy” value was -0.07 kcal/mol. For the sequence TGTACCACGTGGATTG, the “relative binding free energy” value was -0.05 kcal/mol. In the case of AAGGACACGTGGTTAT, the “relative binding free energy” value worked out at 0.04 kcal/mol.

On to ACGGGCACGTGTTTTT, for which the “relative binding free energy” value stood at 0.1 kcal/mol. The value for CTGAGCACGTGTTCGT was -0.14 kcal/mol; that for GGGGACACGTGGGATG was 0.02 kcal/mol; that for ATATACACGTGGGTGG was -0.08 kcal/mol. The figure for GGTTTCACGTGTCCAG is 0.43 kcal/mol; for TTCTACACGTGGGGTG it is -0.14 kcal/mol; for TTATGCACGTGGCGGG it is -0.2 kcal/mol.

For the sequence GTACTCACGTGGGAAG, the “relative binding free energy” value stood at 0.23 kcal/mol. The figure for ATTACCACGTGGTGGT is -0.15 kcal/mol. The value for ATGACCACGTGTTAGT was 0.04 kcal/mol.

As to ACAAGCACGTGAGGGT, the “relative binding free energy” value came to 0.1 kcal/mol. As to TATAACACGTGGGAGT, the “relative binding free energy” value is -0.03 kcal/mol. The figure for AATGGCACGTGCTGCT is -0.07 kcal/mol; for GAAGCCACGTGCGGTG it is 0.08 kcal/mol; for TTTGACACGTGCGCGG it is -0.03 kcal/mol. Take GAGAGCACGTGCGTGG: the “relative binding free energy” value was -0.16 kcal/mol.

Consider GAGGCCACGTGGTGTA, for which the “relative binding free energy” value is -0.13 kcal/mol. The figure for GTTCGCACGTGCAGGG is 0.07 kcal/mol; for TTTGCCACGTGGTATG it is -0.07 kcal/mol; for CAGGTCACGTGTTTGT it is 0.11 kcal/mol. The figure for TCTGGCACGTGAGGCG is 0.17 kcal/mol. Consider GTTATCACGTGCGAGG, for which the “relative binding free energy” value came out at 0.26 kcal/mol. The value for TGATCCACGTGTAAGG was 0.12 kcal/mol; that for ATGAACACGTGGTGTG was -0.04 kcal/mol; that for GGGCACACGTGGGCGA was -0.08 kcal/mol. The figure for ATTAACACGTGAATTT is 0.17 kcal/mol; for AGGGTCACGTGTGCTA it is 0.18 kcal/mol; for TTGGTCACGTGTTCTC it is 0.14 kcal/mol. In the case of TAAGTCACGTGAGTAA, the “relative binding free energy” value was 0.36 kcal/mol. The value for TAACGCACGTGAGGTG was 0.05 kcal/mol; that for TTACTCACGTGTGATG was 0.27 kcal/mol; that for GTGTGCACGTGGTGGG was -0.07 kcal/mol. The figure for CTTGGCACGTGGTGTG is -0.08 kcal/mol; for TTAGACACGTGTATAG it is -0.04 kcal/mol.

Consider TGAGACACGTGTTGAA, for which the “relative binding free energy” value is 0.13 kcal/mol. As to TTATACACGTGTAAAT, the “relative binding free energy” value amounted to 0.05 kcal/mol.

In the case of GGAAGCACGTGAGAGT, the “relative binding free energy” value amounted to 0.22 kcal/mol. As for GGTGACACGTGTATTT, the “relative binding free energy” value came to 0.19 kcal/mol. For ATTGTCACGTGTAGGG, the “relative binding free energy” value was found to be 0.08 kcal/mol.

For GGGTGCACGTGGGGGA, the “relative binding free energy” value is -0.16 kcal/mol.

Take CGAAACACGTGAGGGT: the “relative binding free energy” value worked out at 0.17 kcal/mol.

GTTTGCACGTGCATAT: the “relative binding free energy” value was -0.15 kcal/mol. The value for TGTCACACGTGAGGTG was 0.21 kcal/mol; that for TTCTGCACGTGATGTT was 0.12 kcal/mol; that for GATATCACGTGAAGGG was 0.41 kcal/mol.

Regarding ATGCTCACGTGTTGTG, the “relative binding free energy” value turned out to be 0.07 kcal/mol.

As for TAGTGCACGTGTGAAA, the “relative binding free energy” value stood at 0.06 kcal/mol. The value for GCGGACACGTGGGCGG was -0.08 kcal/mol.

For the sequence GTAAGCACGTGAGTTG, the “relative binding free energy” value worked out at 0.14 kcal/mol.

Consider GGTGGCACGTGTCCGT, for which the “relative binding free energy” value is -0.11 kcal/mol.

On to TGCGCCACGTGGGTGG, for which the “relative binding free energy” value was -0.29 kcal/mol. The value for TGGATCACGTGAGTCG was 0.32 kcal/mol; that for AGGCTCACGTGGGCGA was 0.21 kcal/mol. TTGTTCACGTGAGGTC: the “relative binding free energy” value worked out at 0.4 kcal/mol. Regarding TTGATCACGTGTGTGT, the “relative binding free energy” value was 0.16 kcal/mol.

CGGAACACGTGGGGAG: the “relative binding free energy” value was -0.06 kcal/mol.

Turning to AGTGTCACGTGGAAGC, the “relative binding free energy” value was found to be 0.1 kcal/mol. For GTGGTCACGTGTCGGC, the “relative binding free energy” value was 0.12 kcal/mol. On to CGTGACACGTGTTTTG, for which the “relative binding free energy” value turned out to be 0.07 kcal/mol.

For GCCAGCACGTGGGGGG, the “relative binding free energy” value was -0.35 kcal/mol. The value for TAAAGCACGTGGTGGG was -0.06 kcal/mol; that for TTCTTCACGTGGATAG was 0.37 kcal/mol; that for CGTGTCACGTGCTTAT was 0.17 kcal/mol. Consider ATCGACACGTGGGTAG, for which the “relative binding free energy” value was -0.13 kcal/mol. Regarding TGGTCCACGTGAATAG, the “relative binding free energy” value was 0.3 kcal/mol. The value for ATATGCACGTGAGAGA was 0.27 kcal/mol; that for TTACACACGTGGGGGA was -0.07 kcal/mol; that for TGTGACACGTGGGTAG was -0.07 kcal/mol. The figure for ATATTCACGTGGGGAA is 0.04 kcal/mol. As to CGAGTCACGTGTCGGT, the “relative binding free energy” value amounted to 0.2 kcal/mol. With GTTTGCACGTGGGATC, the “relative binding free energy” value is -0.04 kcal/mol.

With TCTTTCACGTGATAGG, the “relative binding free energy” value stood at 0.23 kcal/mol. Regarding TAAGGCACGTGCGGGG, the “relative binding free energy” value was -0.3 kcal/mol.

In the case of CTAGGCACGTGTTCGT, the “relative binding free energy” value was -0.09 kcal/mol. Take TTTAGCACGTGTGTCG: the “relative binding free energy” value was 0.01 kcal/mol. Take TAACACACGTGGATGT: the “relative binding free energy” value is 0.22 kcal/mol.

For the sequence TTCTTCACGTGTGGCG, the “relative binding free energy” value worked out at 0.2 kcal/mol. The value for TGGGCCACGTGGGTGC was -0.18 kcal/mol; that for GGGCACACGTGAGGCG was 0.36 kcal/mol; that for TCGTCCACGTGTTGGT was 0.07 kcal/mol. On to CATGTCACGTGAAGTT, for which the “relative binding free energy” value amounted to 0.43 kcal/mol.

Take TTAAACACGTGTTATA: the “relative binding free energy” value was -0.08 kcal/mol. On to AATGGCACGTGGGTAT, for which the “relative binding free energy” value was -0.22 kcal/mol.

Take GGTTTCACGTGAAGAT: the “relative binding free energy” value stood at 0.53 kcal/mol. As for TTATTCACGTGAGTAT, the “relative binding free energy” value is 0.36 kcal/mol.

With GAGTGCACGTGGAGGC, the “relative binding free energy” value was -0.02 kcal/mol. The figure for GGATCCACGTGGTTGG is -0.09 kcal/mol.

As for GTCTTCACGTGGGAGG, the “relative binding free energy” value was 0.26 kcal/mol. As to GGCTGCACGTGCGGGT, the “relative binding free energy” value is -0.09 kcal/mol. The figure for AATTTCACGTGGTAAG is 0.19 kcal/mol.

In the case of GTTTTCACGTGACAGT, the “relative binding free energy” value is 0.36 kcal/mol. The figure for CAAGGCACGTGCTGGG is -0.05 kcal/mol; for TACGCCACGTGTGTGG it is -0.07 kcal/mol; for GAGGACACGTGATTTA it is 0.18 kcal/mol. The value for ACGGGCACGTGTATAT was -0.06 kcal/mol; that for TAAGGCACGTGGGTGC was -0.25 kcal/mol. The value for GGTTGCACGTGGTGGG was 0.09 kcal/mol. Turning to ATTTTCACGTGTTGGG, the “relative binding free energy” value was 0.24 kcal/mol.

Take GATGTCACGTGTGTCG: the “relative binding free energy” value was 0.21 kcal/mol.

Values taken from the BET-seq Pho4 binding data (Le et al. 2018).
